Assay results from the supplement of paper PMC10126150.
Sequences with one replicate were seen in a single cluster, so their values are uncertain.

Tested on: ATP
Experiment: switch fluorescence ratio, 500 uM ATP over buffer (Cy3 cluster intensity, sum of 5 cycles each) (fold (ratio)); higher = stronger signal-on switching upon ATP binding; sequences stand for … in TCGTCGGCAGCGTCAGATGTGTATAAGAGACAGTTTTTTTTTTTTTTTTTTTTTTTTT…TC
Settings: aptamer strand: ATP DNA aptamer (quencher-CACCTGGGGGAGTATTGCGGAGGAAGG + anchor), 100 nM annealed; ATP concentration: 500 uM; one replicate
Procedure, shortened: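 Cy3-labelled switching-strand clusters on a modified Illumina MiSeq flow-cell were annealed to 100 nM quencher-labelled ATP aptamer, imaged in selection buffer, then imaged after 15 min with 500 uM ATP at 22 °C. Five buffer/ATP cycles ran, with NaOH stripping and re-annealing between them. The fluorescence ratio is summed target-cycle over summed buffer-cycle Cy3 intensity per cluster, averaged per switch-domain sequence. Clusters outside 100-1000 RFU were excluded.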
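Note: ATP exposure 15 min at 22 °C before imaging.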

Sequence	switch fluorescence ratio
TAGTCCTT	0.972
TTAGAAGTTC	0.963
TTGCGGATGG	1.03
CATAAGAGCA	1.04
TAGAATTCCT	0.998
TGCGAGGCGG	1.01
GGGATAGTGT	0.998
TGCCGTTCCC	1.01
ATACAATGGT	0.97
CATAAGAGGT	0.993
CCTTGCTCAG	1.99
GGGACCTTAT	1.04
GGACTAAGCC	0.946
CTTGTATTGT	1.01
TGGAACTTCT	0.972
GTGCTCAAGC	1.01
GTCGTTACCA	1.01
CGGCCCACGG	1.07
GGGATGCACT	1.03
GACTCCAGCT	2.03
CCTGTTATGC	1.76
ATTCAACTTT	1.02
CCGAAGATAT	2.21

Sequence	switch fluorescence ratio
ATGCTACTGT	1.05
TTATATGCG	1.01
TACACGTCGT	1.02
GTAACCAGTT	1.03
TTAAGATTCA	0.974
ACTTCGTGAA	1.08
AACGTCCCGA	1.02
CTTAGGCTTT	0.956
TAATTCTCCG	1.13
GACATGTGCG	1.04
TAAATTAAAT	1.02
CGCAAAACGT	3.88
TACTATCCGT	1.01
CGTACAGGGC	1.12
CATACCAAAC	1.94
TCATTTTCCT	1.06
GCGGGCTACT	0.972
CGCCTACAGG	1.27
CAACGTACCT	1.63
TAAGGCAGTC	1.05
ATATCTGGCC	1.04
TGCTCGGTTG	1
CGCCTGTACA	1.02

Sequence	switch fluorescence ratio
TGTCCAGGGC	0.983
CGGAATGGG	1
AGTATGAGGA	1.03
CCCCGTGCTT	1.24
TACTTGCTGC	1.07
AAGGAGCACG	1.01
TGGGTGATCA	1.08
ATGTTTAAAA	0.991
GATGGCATTG	0.991
CCCGAGATTG	0.977
GGCACGCCCG	0.998
AATCCGGTGT	1.09
TGTTACGTGC	1.03
CTAAGGATCA	1
CCCTCTTAAG	1.07
ATCGTGCAGC	0.992
CATACGGACA	1.57
AACTGCCCAC	1.08
CCAATGCCCT	1.06
GCCCTATTTT	0.96
TCTAGTATTC	0.988
GAAGTTTATG	0.969
TTATGTTAGC	0.984

Sequence	switch fluorescence ratio
TGCAGGCCGA	0.957
ATGATCGGCC	0.965
CCTAGTTGC	1.04
CAACGACTG	1.07
TATCCACAGA	1.01
TCCTTTTGGT	0.995
TTAGCGACG	1.04
CACCTGATTT	1
GGTTTCGTG	0.992
GTGCCGTTCA	1.01
TTCAGATGGA	1
TAGTTGGAGC	1.05
CGCGTGAGGA	0.973
GTATTAGAGG	1.03
CATCTATAGG	1.03
AATGTAACTT	0.983
GATAGGC	0.978
TGGTTTGTTT	1.02
ACCTTTATTA	0.984
AGGAGGCAAG	1
AAAGTGCCCA	1.01
CTTCCTGGCA	1.98
CGGGCACTGA	1.01

Sequence	switch fluorescence ratio
TTAGTCCTGG	0.983
CCGTTCTTGG	1
TACAGTCCAT	1
TCGAGTGTTT	0.952
TTAAGGAATA	0.944
ACTGGCTG	1.05
AGAAGGGTCG	1.01
TTCTGAGGGT	0.92
CAGTTCACAA	1.04
GATCGGGGG	1.02
CGTCATCCCG	1.14
CATAGACATC	1.01
TCAACGTCG	0.929
AAGTTGGCGG	1.01
AGTCGTATGG	0.933
TAATGGGTTC	0.986
AACCTCGACT	1.14
TCAGCCGTGG	0.994
GTAACAAGTG	1.04
TAAAAAACAA	0.991
GATACTCTGT	1.03
CCGGGCTAAC	1.65
GAGTCGACGT	1.03

Sequence	switch fluorescence ratio
ACCCAGTTCG	1.06
ACAAGGATTT	1.01
GCATCTTACC	1.1
CGCCATAGAG	1.03
TCAACCCAGG	3.24
CGCGGGTGAC	0.985
GGAGTTGTGC	1.1
AACATTTA	1.04
CTGCTTTCGG	0.993
GTCGATGGTC	0.998
GTTCACACCG	1.03
CACTAAGAGA	1.04
TGTATAAGAC	0.962
TTGGCATTGG	1
TTTACCCGCT	1.28
TTTACGAAGG	0.975
CTGCATGCAG	0.981
GCACGTACGG	1.53
CGAATAGAGA	0.965
TACTAGGTAC	1.05
GAACGGTAAC	1.24
AACGTCAAGC	1.3
TAGATGGGCT	1.01

Sequence	switch fluorescence ratio
CCATGCCTTA	0.976
GCTCTCACCA	1.07
AAAACGCTGA	1.27
TCAACAGGTA	1.04
AATATGAGAG	1
CGCAATGTC	1.26
CCTTGTGACC	1.05
AGCCAACGGA	0.979
AAAGGTTTAA	0.981
CCAACAAAGG	1.04
TACAGTATGT	1
TCGAAAGGTA	1.03
TGGATTTTGT	0.994
TTTCAATCAC	1.28
ATCCAATAGG	1.04
GAGTGGAGTA	0.849
CCGGGTTTCC	0.971
AGTTATGACA	0.976
CCCGGGGGGC	3.05
